# Measured values as given in PMC10872421 (Journal of molecular and cellular cardiology, 2023).
# B1: C0-C2^cys330, PKA-phosphorylated (domain or fragment)
# chain: not shown
# modifications: tetramethylrhodamine-5-maleimide (TMR) on cys330; phosphorylated by PKA in the M-domain (serines S275, S284, S304, S311)
# B2: C0-C2^(cys330, L352P), PKA-phosphorylated (domain or fragment)
# chain: not shown
# modifications: tetramethylrhodamine-5-maleimide (TMR) on cys330; phosphorylated by PKA in the M-domain (serines S275, S284, S304, S311)
# B3: C0-C2^(cys85, L352P), PKA-phosphorylated (domain or fragment)
# chain: not shown
# modifications: tetramethylrhodamine-5-maleimide (TMR) on cys85; phosphorylated by PKA in the M-domain (serines S275, S284, S304, S311)
# B4: C0-C2^(cys85, T59A) (domain or fragment)
# chain: not shown
# modifications: tetramethylrhodamine-5-maleimide (TMR) on cys85
# B5: C0-C2^(cys330, T59A) (domain or fragment)
# chain: not shown
# modifications: tetramethylrhodamine-5-maleimide (TMR) on cys330
# B6: C0-C2^(cys330, T59A), PKA-phosphorylated (domain or fragment)
# chain: not shown
# modifications: tetramethylrhodamine-5-maleimide (TMR) on cys330; phosphorylated by PKA in the M-domain (serines S275, S284, S304, S311)
# B7: C0-C2^(cys249, L352P) (domain or fragment)
# chain: not shown
# modifications: tetramethylrhodamine-5-maleimide (TMR) on cys249
# B8: C0-C2^(cys85, L352P) (domain or fragment)
# chain: not shown
# modifications: tetramethylrhodamine-5-maleimide (TMR) on cys85
# B9: C0-C2^(cys330, L349R), PKA-phosphorylated (domain or fragment)
# chain: not shown
# modifications: tetramethylrhodamine-5-maleimide (TMR) on cys330; phosphorylated by PKA in the M-domain (serines S275, S284, S304, S311)
# B10: C0-C2^(cys330, L352P) (domain or fragment)
# chain: not shown
# modifications: tetramethylrhodamine-5-maleimide (TMR) on cys330
# B11: C0-C2^(cys85, R282W) (domain or fragment)
# chain: not shown
# modifications: tetramethylrhodamine-5-maleimide (TMR) on cys85
# B12: C0-C2^(cys249, L352P), PKA-phosphorylated (domain or fragment)
# chain: not shown
# modifications: tetramethylrhodamine-5-maleimide (TMR) on cys249; phosphorylated by PKA in the M-domain (serines S275, S284, S304, S311)
# Molecular target: T1, FMAL-labeled F-actin (rabbit, UniProt P68135, fluorescein-5-maleimide (FMAL) on cys374 (10% of the monomers labelled))
# Test: co-sedimentation
row,fold increase of EC50 upon phosphorylation,Binder
1,1.1 fold,B1

# Molecular target: T1, FMAL-labeled F-actin
# Test: FRET or BRET
row,fold change of EC50 upon phosphorylation,Binder
1,2.8 fold,B1

# Molecular target: T1, FMAL-labeled F-actin
# Test: FRET or BRET
# Remark: another data set of the same source
row,FLT-FRET at 2.5 μM relative to WT,Binder
1,2.6 relative to WT,B2
2,2.27 relative to WT,B3
3,0.97 relative to WT,B4
4,1.21 relative to WT,B5
5,0.98 relative to WT,B6
6,1.21 relative to WT,B7
7,1.36 relative to WT,B8
8,2.66 relative to WT,B9
9,1.31 relative to WT,B10
10,1.03 relative to WT,B11
11,1.74 relative to WT,B12
